The whole screen tested about 360,000 compounds, of which about 6,000 (1.7%) were called active. The inconclusive results got no clear call from the source; some entries with a clear call stand among them for comparison. Calls come from the whole dose curve; as a rule, active = well fitted cell-killing curve with a large enough effect; inconclusive = small, poorly fitted or top-dose-only effect, or effect the other way; inactive = flat fitted curve, though single readings scatter. Potencies of inconclusive entries are left out as doubtful fits.
test: qHTS for induction of synthetic lethality in tumor cells producing 2HG: qHTS for the HT-1080-NT fibrosarcoma cell line; details: HT-1080-NT fibrosarcoma viability, CellTiter-Glo ATP luminescence, 48 h; activity, negative = less viability: at 46.1 µM (top of the series) unless noted;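 note: NT is the 2HG producing partner of a matched IDH1 knockdown line; nearly all actives have a fitted effect of over 55% in size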;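 for activity, negative = less viability: 0% = DMSO-treated cells and -100% = media-only wells without cells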
Outline: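 Read-out is CellTiter-Glo luminescence after 10 minutes at room temperature, following 48 hours' compound treatment of HT-1080-NT cells (750 cells/well, RPMI, 5% FBS, 37 degrees C).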
Potency is the fitted concentration of half-maximal effect; tags give direction and shape of the fitted curve.

| SMILES | Potency | activity, negative = less viability |
| --- | --- | --- |
| c1ccc(-n2nnnc2NC2CCCCC2)cc1 | inconclusive [cytotoxic, partial curve, poor fit] |  |
| CC(=O)Nc1ccc(NC2=CC(=O)c3ccccc3C2=O)cc1 |  | inconclusive: -19.7% [cytotoxic] |
| CC(C)Cc1nc(N2CCOCC2)c(C#N)c2c1COC(C)(C)C2 | inactive |  |
| CCCCNC(=O)c1nc(-c2ccccc2)oc1-c1ccc(Cl)cc1 | inconclusive [rising, single point] |  |
| COc1ccc(OCC(O)Cn2c(=N)n(Cc3ccccc3)c3ccccc32)cc1 (centres undefined) | inconclusive [cytotoxic, single point] |  |
| CN(C)c1ccc(-c2nn3c(C4CCCCC4)nnc3s2)cc1 | inactive |  |
| COc1ccccc1C(=O)NC(=S)Nc1cccc2cc(O)ccc12 | inconclusive [cytotoxic, single point] |  |
| O=C(NCCCO)/C(=C\c1ccco1)NC(=O)c1ccco1 | inactive |  |
| CC(C)C[C@@H](CN1CCC[C@H]1CN1C(=O)C(=O)NC[C@@H]1Cc1ccc(O)cc1)N1C[C@H](Cc2ccccc2)N(CC2CCCCCC2)C(=O)C1=O | inconclusive [cytotoxic, single point] |  |
| Cc1c(C(=O)Nc2ccc3c(c2)OCCO3)sc2nc(-c3ccccc3)cn12 | inconclusive [cytotoxic, single point] |  |
| COC(=O)c1ccc(Cl)c(NC(=O)CN(c2ccc(OC)cc2)S(=O)(=O)c2ccccc2)c1 | inactive |  |
| O=C(N/N=C/c1cccs1)c1n[nH]c2c1CCCC2 | active: 20.6 µM |  |
| Cc1nc2ccc(Br)cn2c1NC(C)(C)C | inconclusive [cytotoxic, single point] |  |
| CC1(C(=O)Nc2cnc3ccccc3c2)CCN1Cc1ccc2ccccc2c1 (centres undefined) | inconclusive [cytotoxic, single point] |  |
| Nc1cc(Cl)nc(N/N=C/c2c(O)ccc3ccccc23)n1 | inconclusive [cytotoxic, single point] |  |
| COC(=O)C1(C(F)(F)F)C2C=CC(C2)N1S(=O)(=O)c1ccc(C)cc1 (centres undefined) | inactive |  |
| Cc1cccc(C(=O)Nc2cccc(C(=O)N/N=C/c3ccc4c(c3)OCO4)c2)c1 | active: 18.4 µM |  |
| Cc1noc(C)c1-c1ccc(C(=O)NCc2ccc(Cl)cc2)c2occc12 | inconclusive [cytotoxic, single point] |  |
| CC(C)[C@H](NC(=O)[C@H](Cc1ccccc1)n1c(=O)[nH]c2ccccc2c1=O)C(=O)N1CCC[C@@H]1C(=O)O | inactive |  |
| COc1cc2nc(N3CCCCC3)nc(NC3CCN(C)CC3)c2cc1OC | active: 20 µM |  |
| CC(C)(C)c1ccc(S(=O)(=O)N2CCC(c3nc4ccc(Cl)cc4[nH]3)CC2)cc1 | inactive |  |
| COc1cc(C(=O)NC2CCN(C)CC2)ccc1Nc1ncc2c(n1)N(C1CCCCC1)CCC(=O)N2C | inconclusive [cytotoxic, partial curve, poor fit] |  |

| SMILES | Potency | activity, negative = less viability |
| --- | --- | --- |
| CCOc1ccc2oc(C(=O)NCc3ccccc3CN3CCCC3)c(C)c2c1 | inconclusive [cytotoxic, single point] |  |
| O=C(CCN1C(=O)NC2(CCCC2)C1=O)Nc1ccc(-c2nc3ccccc3s2)cc1 | inactive |  |
| CCCOP(=O)(OCCC)c1c([N+](=O)[O-])cc(C(F)(F)F)cc1[N+](=O)[O-] | inconclusive [cytotoxic, single point] |  |
| Fc1ccc2[nH]c3c(N4CCN(Cc5ccc6c(c5)OCO6)CC4)ncnc3c2c1 | active: 23.1 µM |  |
| O=C(N/N=C/c1cn(-c2ccccc2)nc1-c1cc2ccccc2o1)c1ccccc1Br | inconclusive [cytotoxic, single point] |  |
| COc1cccc(OC)c1C(=O)Oc1ccc2c(c1)O/C(=C\c1ccncc1)C2=O | active: 18.4 µM |  |
| COc1cc(NC(=O)C2=C(N3CCOCC3)/C(=C\c3ccc(N(C)C)cc3)CCC2)cc(OC)c1OC | inconclusive [cytotoxic, partial curve] |  |
| Cc1ccc(C(=O)NCCSC2CCCCC2)cc1S(=O)(=O)Nc1ccccc1 | inconclusive [cytotoxic, single point] |  |
| O=C(NC1CCCC1)C(c1cccs1)N(C(=O)c1csnn1)c1ccccc1F (centres undefined) | inactive |  |
| O=C(Nc1ccc(Cl)c(Cl)c1)Nc1nccs1 | inconclusive [cytotoxic, full curve] |  |
| CC1(C(=O)NS(=O)(=O)c2cccc(F)c2)CCN1C(=O)CC1CCCC1 (centres undefined) | inconclusive [rising, single point] |  |
| O=C(Nc1nnc([C@@H]2C[C@H](O)[C@@H](CO)O2)s1)Nc1cccc2c1CCCC2 | inactive |  |
| O=C1c2cccc3cccc(c23)C(=O)N1CC1CCN(CC(O)COCc2ccc3c(c2)OCO3)CC1 (centres undefined) | active: 20.6 µM |  |
| CCN(CC)CCNC(=O)c1ccc(NC(=O)C2CCN(c3ncnc4sc(C)c(C)c34)CC2)cc1 | inconclusive [cytotoxic, single point] |  |
| CC(=O)c1ccc(S(=O)(=O)N(C)CC(=O)NCc2ccco2)cc1 | inactive |  |
| Cc1cccc(N(Cc2ccccc2)C(=O)CN2C(=O)NC3(CCCC3)C2=O)c1 | inactive |  |
| CCOc1c(Cl)cc(CNc2ccc(N3CCCC3)cc2)cc1OC | inconclusive [cytotoxic, partial curve] |  |
| O=C(c1cccc(S(=O)(=O)N2CCc3ccccc32)c1)N1CCN(c2ccccn2)CC1 | inconclusive [cytotoxic, partial curve, poor fit] |  |
| COc1cc(-c2nc(S(=O)(=O)c3ccc(C)cc3)c(N3CCOCC3)o2)cc(OC)c1OC | inactive |  |
| Cc1ccc(S(=O)(=O)N2CCN(C(=O)CC(C)n3nc(C)c(Cl)c3C)CC2)cc1 (centres undefined) | inactive |  |
| C#CCN(C[C@@H]1[C@@H](OC(=O)Nc2cccs2)[C@@H](OC(=O)Nc2cccs2)Cn2c(=O)ccc(=O)n21)S(=O)(=O)c1ccc(C)cc1 | active: 18.4 µM |  |
| O=C(C[C@H]1C/C=C\CC[C@@H](Cc2ccc(F)cc2)C(=O)O[C@@H](c2ccccc2)CNC1=O)N[C@H](CO)Cc1ccccc1 | inconclusive [cytotoxic, single point] |  |

Source: PubChem BioAssay AID686970 (National Center for Advancing Translational Sciences (NCATS), 2013)
